Measured values published in PubChem BioAssay AID1768 (National Center for Advancing Translational Sciences (NCATS), 2009).
“And” between values parts separate entries of the source, which are not always exact repeats. Identical values can stand only once. Hit rate of the full screen: of about 270,000 compounds, about 620 (0.23%) were called active. The shares of active, inactive and inconclusive entries below differ from those in the screen. Calls come from the whole dose curve; as a rule, active = well fitted inhibition curve with a large enough effect in the polarisation, with a control signal flat (not every such curve was filed as active); inconclusive = small, poorly fitted or top-dose-only effect, or effect the other way, or a change in a side signal; inactive = no such curve, though single readings can be large or run the other way; the % refers to the polarisation. A potency beside an inconclusive call is a rough fit, not a confirmed value. A note “side channel” means that the fit belongs to a control or component signal, not to the main read-out.

target: Menin (Homo sapiens) (UniProt O00255); assay: qHTS Assay for Inhibitors Targeting the Menin-MLL Interaction in MLL Related Leukemias: Competition With Texas Red Labeled MLL-derived Mutant Peptide; conditions: fluorescence polarization; FP activity change, negative = inhibition: at 61.6 µM (top of the series); for FP activity change, negative = inhibition: % of control where 0% means no effect
Potency is the fitted concentration of half-maximal effect; tags give direction and shape of the fitted curve or compound fluorescence and quenching.

Chain of UniProt O00255 (O00255 whole entry, looked up): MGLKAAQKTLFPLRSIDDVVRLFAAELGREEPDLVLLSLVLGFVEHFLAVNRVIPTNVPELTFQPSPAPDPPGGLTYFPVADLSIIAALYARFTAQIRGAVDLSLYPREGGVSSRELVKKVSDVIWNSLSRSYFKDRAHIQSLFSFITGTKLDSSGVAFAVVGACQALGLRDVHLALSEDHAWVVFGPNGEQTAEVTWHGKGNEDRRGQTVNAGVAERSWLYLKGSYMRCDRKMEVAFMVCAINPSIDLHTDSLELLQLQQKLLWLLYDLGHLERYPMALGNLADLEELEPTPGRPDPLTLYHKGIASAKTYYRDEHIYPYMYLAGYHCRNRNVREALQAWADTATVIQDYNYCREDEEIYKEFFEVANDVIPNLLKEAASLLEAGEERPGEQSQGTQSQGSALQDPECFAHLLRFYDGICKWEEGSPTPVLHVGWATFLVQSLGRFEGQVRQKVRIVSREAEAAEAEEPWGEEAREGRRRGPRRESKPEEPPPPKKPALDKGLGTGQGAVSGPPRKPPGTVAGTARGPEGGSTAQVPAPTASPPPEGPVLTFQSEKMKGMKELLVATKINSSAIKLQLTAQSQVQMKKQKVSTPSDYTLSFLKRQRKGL

Compound | Potency | FP activity change, negative = inhibition
CCCCc1oc2ccccc2c1C(=O)c1cc(I)c(OCCN(CC)CC)c(I)c1 | inconclusive: 3.16 µM [fluorescent, side channel, partial curve] and inconclusive: 2.82 µM [fluorescent, side channel, full curve] | 
O=C(Cc1cccs1)Nc1nc(-c2ccc(F)c(F)c2)cs1 | inconclusive: 10 µM [quencher, side channel, partial curve] | 
CN1CCN(CCCNC(=O)c2ccc3c(c2)N(Cc2ccc(F)cc2)CCS3)CC1 | inconclusive: 39.8 µM [inhibitor, single point] | 
CCCC(=O)Nc1ccc(Sc2ccc([N+](=O)[O-])cc2)cc1 | inconclusive: 15.8 µM [quencher, side channel, single point] | 
N#C/C(=C(/O)CN1CCN(c2ccccc2F)CC1)c1nc(-c2ccccc2)cs1 | inconclusive: 25.1 µM [quencher, side channel, partial curve] | 
CCOC(=O)N(NC(=O)C(O)(c1ccccc1)c1ccccc1)c1ccccc1 | inconclusive: 22.4 µM [inhibitor, single point] | 
Cc1ccc(S(=O)(=O)N2CCN(S(=O)(=O)N3CCCCC3)CC2)cc1C | inconclusive: 31.6 µM [fluorescent, side channel, partial curve] | 
O=C(NNc1ccc([N+](=O)[O-])cc1)Nc1ccccc1 |  | inactive: 4.66%
CCOC(=O)c1[nH]c2cc(OC)c(OC)cc2c1N |  | inactive: 15.9%
CC(=O)c1c(N2CCN(Cc3ccc4c(c3)OCO4)CC2)nc(=S)n(-c2ccccc2)c1C | inconclusive: 0.631 µM [fluorescent, side channel, full curve, poor fit] | 
O=S(=O)(N/N=C1/CC(c2ccccc2)Oc2ccccc21)c1ccc(Br)cc1 (stereo not given) | inconclusive: 28.2 µM [quencher, side channel, partial curve] | 
CCOC(=O)C(C)Oc1nc(Oc2ccccc2)nc(N(C)C)n1 (stereo not given) | inconclusive: 39.8 µM [fluorescent, side channel, single point] | 
FC(F)Oc1ccc(NC(=S)NCc2ccco2)cc1Cl | inconclusive: 17.8 µM [quencher, side channel, single point] | 
COc1cc(Cl)c(C)cc1NC(=O)CNC(=O)Cn1cnc2ccccc2c1=O | inconclusive: 5.01 µM [inhibitor, single point] | 
O=C(O)c1cccc(N/N=C/c2cc(Br)cc(Br)c2O)c1 | inconclusive: 28.2 µM [quencher, side channel, single point] | 
COCCn1c(C)cc(/C=C2/NC(=O)N(c3cccc(Cl)c3)C2=O)c1C | inconclusive: 31.6 µM [quencher, side channel, single point] | 
COc1ccc(/C=C/CN2CCCC(CO)(Cc3cccc(Cl)c3)C2)cc1 (stereo not given) | inconclusive: 14.1 µM [fluorescent, side channel, partial curve] | 
O=C1C([N+](=O)[O-])=C(O)c2cccc3cccc1c23 | inconclusive: 28.2 µM [quencher, side channel, partial curve] | 

Compound | Potency | FP activity change, negative = inhibition
CC(C)CC(c1nnnn1Cc1ccco1)N1CCN(C2CCCC2)CC1 (stereo not given) | inconclusive: 28.2 µM [quencher, side channel, partial curve] | 
O=C(Cl)CCCCCCCC(=O)Cl |  | inactive: 1.02%
COCCn1c(C)cc(C(=O)CSc2nc3ccccc3s2)c1C | inconclusive: 20 µM [quencher, side channel, single point] | 
CCCC(O)(c1ccccc1)C(CN1CCOCC1)c1ccccc1 (stereo not given) | inconclusive: 10 µM [fluorescent, partial curve, poor fit] | 
CCCOc1ccc(/C=C/C(=O)Nc2ccc([N+](=O)[O-])cc2)cc1 | inconclusive: 8.91 µM [quencher, side channel, full curve] | 
CCC(c1nnnn1CCOC)N(Cc1cc2c(C)cc(C)cc2[nH]c1=O)CC1CCCO1 (stereo not given) | inconclusive: 5.62 µM [inhibitor, full curve] | 
Cc1ccc(NS(=O)(=O)c2ccc(NC(=O)c3cccs3)cc2)c(C)c1 | inconclusive: 11.2 µM [quencher, side channel, partial curve] | 
O=C(Cc1ccc(Br)cc1)Nc1ccccc1Cl | inconclusive: 35.5 µM [inhibitor, single point] | 
O=C(Oc1ccc2ccccc2c1)c1ccccc1 | inconclusive: 28.2 µM [quencher, side channel, single point] | 
COc1cccc2sc(N(CCCN(C)C)C(=O)c3ccc(S(=O)(=O)N4CCCc5ccccc54)cc3)nc12 | inconclusive: 15.8 µM [inhibitor, partial curve] | 
Cc1ccccc1/C=N/n1c(COc2ccccc2)n[nH]c1=S | inconclusive: 28.2 µM [inhibitor, single point] | 
CCOc1ccc(C2c3[nH]c4ccccc4c3C[C@H]3C(=O)N(C4CCN(Cc5ccccc5)CC4)CC(=O)N23)cc1OC (stereo not given in full) | inconclusive: 1.41 µM [inhibitor, full curve, poor fit] | 
CC(OC(=O)c1ccc(NC(=O)CC#N)cc1)C(=O)NC(=O)NC1CCCCC1 (stereo not given) | inconclusive: 39.8 µM [fluorescent, side channel, single point] | 
Cc1cc(NC(=O)CSc2sc3c(O)cc(=O)[nH]c3c2C#N)ccc1Br | inconclusive: 17.8 µM [quencher, side channel, partial curve] | 
Cc1cc(Cl)c(S(=O)(=O)N2CCCC2)cc1OCC(=O)NC1CCCCC1 | inconclusive: 20 µM [fluorescent, side channel, partial curve] | 
COc1ccc(N(CC(=O)Nc2ccc(OC)c(OC)c2)S(=O)(=O)c2ccccc2)cc1Cl | inconclusive: 14.1 µM [quencher, side channel, partial curve] | 
Cc1cccc(C)c1NC(=O)C1(N(Cc2ccco2)C(=O)CC2NC(=O)NC2=O)CCCCC1 (stereo not given) | inconclusive: 39.8 µM [inhibitor, single point] | 
